Source: the supplement of paper PMC3334620
In all, about 33,000 sequences were measured (“E-score (-0.5 to 0.5)”: median about -0.032, highest 2% from about 0.36 on). Some of the results follow.

Target: T1, Sko1 (UniProt Q02100)
T1 sequence: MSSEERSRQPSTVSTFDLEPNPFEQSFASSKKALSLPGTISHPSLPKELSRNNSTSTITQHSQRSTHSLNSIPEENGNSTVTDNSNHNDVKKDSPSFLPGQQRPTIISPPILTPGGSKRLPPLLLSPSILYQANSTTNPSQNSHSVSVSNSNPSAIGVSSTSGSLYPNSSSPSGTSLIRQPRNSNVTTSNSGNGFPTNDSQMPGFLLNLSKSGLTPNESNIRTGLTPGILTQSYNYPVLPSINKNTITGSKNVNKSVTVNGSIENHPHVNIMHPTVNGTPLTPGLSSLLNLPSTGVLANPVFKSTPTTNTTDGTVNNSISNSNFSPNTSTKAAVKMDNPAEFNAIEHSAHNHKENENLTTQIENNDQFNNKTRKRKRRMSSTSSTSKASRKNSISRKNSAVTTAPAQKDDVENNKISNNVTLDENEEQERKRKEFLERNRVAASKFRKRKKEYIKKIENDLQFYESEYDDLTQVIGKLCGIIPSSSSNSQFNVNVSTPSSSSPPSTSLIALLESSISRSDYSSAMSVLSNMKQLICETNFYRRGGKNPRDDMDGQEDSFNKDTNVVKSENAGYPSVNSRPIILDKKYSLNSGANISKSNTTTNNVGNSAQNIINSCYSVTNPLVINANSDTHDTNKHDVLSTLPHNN
Experiment: PBM E-score (8-mer binding enrichment) (E-score (-0.5 to 0.5)); higher = stronger / more preferred TF binding; most listed sequences are background and not binding sites
Settings: protein concentration: 200 nM; construct: GST-full length
In short: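 GST-tagged yeast TFs (full-length or DNA-binding domain) were made by PURExpress in vitro transcription/translation and applied at about 100-200 nM to universal all-10-mer Agilent arrays. The arrays were made double-stranded by primer extension, on fresh or once-stripped slides. Bound protein was detected with fluorescent anti-GST, and scans were normalised with masliner. Each ungapped eight-base word, pooled with its reverse complement, received an E-score (modified Wilcoxon-Mann-Whitney statistic) from the Universal PBM Analysis Suite.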

Sequence | PBM E-score
TCTCAGCA | -0.155
GTACGCGA | 0.277
GCTATCAC | 0.0252
TGGCCACA | -0.0976
ACGCACTC | 0.285
AGTAGCAT | -0.0244
AAACTTGA | 0.114
AAGACTCA | -0.102
AGTTGCAA | 0.219
GCCCCCCA | -0.462
ATGCTGCA | -0.168
ACTTTTCT | -0.022
GCTACAGC | -0.212
ACTGCCGA | -0.181
CACACAAC | 0.068
AAACAGTT | 0.172
GATTGGCC | -0.172
TAACTAGA | 0.187
AATAATGG | 0.147
CAATCACG | 0.278
TGTAAGAA | 0.208
ATAAACAG | 0.122
CGGTTATC | -0.0912
GGTAGATA | 0.0735
AACCCGCT | -0.326

Sequence | PBM E-score
ACTGAATA | 0.0581
TCCGGCAA | -0.0876
CGAGGTAA | -0.107
CTTAGGTA | 0.139
AACGACTA | 0.214
AGAGACCA | -0.0799
ATGATACA | 0.222
AAATACTT | 0.168
GGCGTAAC | 0.0903
ACATACGC | 0.28
CTATGGGA | -0.134
AAGTGCCC | -0.316
ACCTTTCA | -0.108
GACGATCC | -0.0861
ACGCGGCG | 0.096
GTCCTAGA | 0.0451
AAACCATG | -0.0853
AGAACAGC | -0.0778
ATCATAGC | 0.269
GAACTACC | -0.0763
CTGCTGAC | 0.0145
CTAATCTA | 0.0405
GAACACGC | 0.0523
ACGCTCAC | 0.112
GTCAGATA | 0.197

Sequence | PBM E-score
CTGATTGC | 0.0319
GATACAGC | -0.0591
TCTTAAGA | 0.145
CTCGGAGA | -0.186
ATATCTAA | 0.184
AAATCGGG | -0.185
CTCCAATC | -0.165
ATATTGTC | 0.0716
GCCCAACC | -0.075
CAGACACG | -0.0625
ATGCTAAG | -0.0737
AACGTGTG | 0.272
AAGAGCCT | -0.166
CGCAAAAC | 0.26
ACTGCACT | -0.132
CACGAATG | 0.233
CTTGAGAC | -0.162
CATGACCG | 0.0181
ACGCCTTC | -0.141
AGACCTCT | -0.116
ATAGGTAA | 0.209
AGTTAATA | 0.2
AGACAGCT | -0.183
CTCACCGC | -0.171
GCACCCGC | -0.0958

Sequence | PBM E-score
CGAATCGC | -0.0166
AGGGTGAT | -0.111
ATCCTGCG | 0.00674
TCCTTCCA | -0.115
CATTATTC | 0.0126
GGGAAGAA | -0.152
ATAGGTCG | -0.195
ACACAAGG | -0.0621
ACTGCACA | -0.0526
CATCGTCG | -0.16
ATGCCCAT | -0.199
CGAAGACC | -0.266
CTTTGAGC | -0.228
CTCTTAAG | -0.0218
AGTCGCCA | -0.234
ATCCCCGG | -0.296
TCTCGTAA | 0.276
GTATTCAC | 0.221
CCCAGTCG | -0.115
AAACGTAC | 0.37
ATGCTACG | 0.305
ATACGTAG | 0.471
GTTCTGCA | 0.103
AATTTCTG | 0.133
AAATTTAA | 0.165

Sequence | PBM E-score
GAGCATAA | -0.00043
CCGTGCTA | -0.244
ACTCAGCC | -0.163
ACGAGCTG | -0.0394
CCATAGGC | -0.352
CAAGCGCA | 0.106
CTTCTGAC | 0.238
ATCACAGG | -0.0617
ACATGAAC | 0.0961
TGCTCCAA | -0.0806
CCACCAAC | -0.0746
TAAAGACA | 0.0889
GAATGCTC | -0.0513
CGCCTCTC | -0.301
CAGGCTGA | -0.152
CTCATAAC | 0.0609
ATGACAAT | 0.188
ACCGGCGT | 0.0278
ATGAATGC | 0.187
TCGCTACA | -0.243
ACCTAATC | 0.256
AAAGATAT | 0.152
CACGCCCG | -0.142
CCAGATTC | -0.283
TCGCAGCA | -0.00491

Sequence | PBM E-score
GAATGCCC | -0.261
ATGTGGAG | -0.0702
GAAACATC | 0.0562
ATTGCGCG | 0.306
ATCATTTA | 0.35
GACACGGC | -0.0578
GGAAGCAA | -0.063
CATAAGGC | 0.125
AATACAGT | 0.0046
AAGTTTAA | 0.043
AAAGGGTT | -0.115
CGAACGTC | 0.238
ACATACAA | 0.139
GACCTGCA | -0.185
CTCACGTA | 0.356
AAACCCTG | -0.224
TACCCCAA | -0.12
CACTCGGG | -0.291
CCCCAGCG | -0.194
AACGAGAC | -0.013
CATACAAA | 0.251
AGGTGCTG | -0.288
AAAATTAG | 0.0606
AGATTGCC | -0.248
CGACAATA | 0.105

Sequence | PBM E-score
CATCCGTC | -0.0447
TCGCATAA | 0.195
GTGATACA | 0.141
ATTAGCCC | -0.156
ATGCCTGA | -0.129
GTCCTTCA | 0.0853
CTCCCAAG | -0.233
AAACTGAA | -0.00727
ACGACCGG | -0.335
ATTATGTG | 0.266
ACTTATTG | -0.0912
AAGGGTTC | -0.272
ATGTCGTC | 0.365
ACTTCGCC | -0.00308
CCTTTACA | 0.0593
CCACGATA | 0.0737
CGAGTTCA | 0.00744
AAGGATAC | 0.00239
GGGCCTAA | -0.266
ACCTCGTG | 0.0137
CTCTAATA | 0.228
AACAGCCA | 0.106
